According to the supplement of paper PMC3334620:
Over roughly 33,000 sequences, “E-score (-0.5 to 0.5)” has its median near -0.043; the highest 2% begin near 0.37. This is one part of the list.

Target: T1, Upc2 (UniProt Q12151)
T1 sequence: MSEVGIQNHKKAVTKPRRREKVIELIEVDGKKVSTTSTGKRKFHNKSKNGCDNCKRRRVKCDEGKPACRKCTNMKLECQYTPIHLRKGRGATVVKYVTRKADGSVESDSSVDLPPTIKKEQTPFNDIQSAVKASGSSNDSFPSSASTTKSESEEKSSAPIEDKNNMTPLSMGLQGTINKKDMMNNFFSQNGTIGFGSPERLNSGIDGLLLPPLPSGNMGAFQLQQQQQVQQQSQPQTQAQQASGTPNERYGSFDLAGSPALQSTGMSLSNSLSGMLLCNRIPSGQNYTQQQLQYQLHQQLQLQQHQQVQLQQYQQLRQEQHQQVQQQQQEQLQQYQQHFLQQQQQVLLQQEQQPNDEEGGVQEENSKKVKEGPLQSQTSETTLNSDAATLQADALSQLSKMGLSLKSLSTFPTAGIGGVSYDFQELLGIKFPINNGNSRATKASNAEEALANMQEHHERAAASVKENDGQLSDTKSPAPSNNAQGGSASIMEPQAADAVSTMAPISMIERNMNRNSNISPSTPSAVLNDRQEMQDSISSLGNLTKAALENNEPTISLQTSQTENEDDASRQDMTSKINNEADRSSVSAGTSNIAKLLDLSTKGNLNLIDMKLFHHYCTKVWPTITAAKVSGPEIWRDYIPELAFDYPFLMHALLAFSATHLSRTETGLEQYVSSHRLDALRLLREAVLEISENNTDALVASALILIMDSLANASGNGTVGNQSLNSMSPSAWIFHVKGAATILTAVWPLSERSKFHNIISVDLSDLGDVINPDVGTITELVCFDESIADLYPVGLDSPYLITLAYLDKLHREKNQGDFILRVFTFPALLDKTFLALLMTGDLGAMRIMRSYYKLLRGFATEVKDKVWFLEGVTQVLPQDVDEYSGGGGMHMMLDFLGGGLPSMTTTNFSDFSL
Test: PBM E-score (8-mer binding enrichment) (E-score (-0.5 to 0.5)); higher = stronger / more preferred TF binding; most listed sequences are background and not binding sites
Details: protein concentration: 200 nM; construct: GST-full length
Outline: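 Detection of bound protein used fluorescent anti-GST, with scans normalised by masliner. The proteins were GST-tagged yeast transcription factors applied at about 100-200 nM to universal all-10-mer Agilent arrays made double-stranded by primer extension. Each ungapped eight-base word, pooled with its reverse complement, was scored with an E-score from the Universal PBM Analysis Suite.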

| Sequence | PBM E-score |
| --- | --- |
| ACTTTCGA | 0.0303 |
| GCGTACGC | 0.281 |
| GGGCAGAC | -0.215 |
| CACCGGCC | -0.0276 |
| CTCACTGA | -0.29 |
| CTCCGGAA | -0.107 |
| GACTACGC | -0.0586 |
| ACTATCCG | 0.211 |
| ATATTTGG | -0.0511 |
| CGATGGAC | 0.186 |
| AATTCAAC | -0.0242 |
| ATAACAAG | -0.044 |
| AAAGGTAA | 0.132 |
| CCTACAGG | -0.0609 |
| TCTTTCCA | -0.151 |
| CCAGCCCG | -0.21 |
| CCCTTAGC | -0.209 |
| CGTTAAAC | 0.411 |
| CACTAAAA | 0.0777 |
| TATGATCA | 0.0786 |
| AGAGGTAA | 0.134 |
| GATCCGAA | 0.146 |
| ATGGAACA | -0.303 |
| AGGGAAAC | -0.0321 |
| GGCCGCAC | -0.246 |

| Sequence | PBM E-score |
| --- | --- |
| GATGTAAA | 0.169 |
| TCGTAACA | 0.404 |
| AATCCCGT | 0.111 |
| GGAAAAGA | -0.11 |
| ATTACGGA | 0.185 |
| AGGATCTA | -0.116 |
| AAGATCGG | -0.0541 |
| GCGGTAAC | 0.0815 |
| AAAACGTG | 0.00865 |
| GCCGCGCA | -0.167 |
| ACTCAGGA | -0.162 |
| CCTATGGC | -0.195 |
| AAACGGTC | 0.344 |
| AGAATGGG | -0.208 |
| GGCCGAAA | -0.0925 |
| CTCCTTGC | -0.0057 |
| AACGAAGA | 0.424 |
| CCTAGTTC | -0.11 |
| CAATGCGG | -0.205 |
| AAGTATAG | 0.0267 |
| CACTAGGG | -0.346 |
| GGACACAC | -0.122 |
| AGTACAAC | -0.0045 |
| ACTCAGGG | -0.091 |
| CGAGCGCG | 0.188 |

| Sequence | PBM E-score |
| --- | --- |
| CACACCAA | 0.054 |
| GCCACCAA | -0.0957 |
| ATGTCATA | -0.0145 |
| GTTCTAGA | 0.00744 |
| CTGCTCCA | -0.215 |
| AGCTTTTG | 0.0424 |
| TCGTCGAA | -0.0136 |
| ACTCGTCG | 0.2 |
| TATTTTCA | 0.0629 |
| TCTGGGAA | 0.0669 |
| AGCTACCT | -0.161 |
| ATTGCGAG | 0.16 |
| AATCGACA | 0.142 |
| GGTCTCCA | -0.235 |
| GAGTCTTA | -0.0154 |
| AATTACGA | 0.341 |
| CCTTGACG | -0.219 |
| AGGTGGCC | -0.0807 |
| CACAAGGG | -0.253 |
| ACACAGGT | -0.112 |
| ATAAGTAG | -0.138 |
| AGTGGGAC | -0.0952 |
| ATGCGAAA | 0.204 |
| CTTATCTA | 0.0609 |
| CCTTCCAG | -0.259 |

| Sequence | PBM E-score |
| --- | --- |
| GGCCCGCA | -0.103 |
| AGATGCCA | -0.132 |
| AATGAAGA | -0.00976 |
| AGAGCGTG | 0.0116 |
| CCATGACC | -0.0468 |
| AGCCGCGC | -0.211 |
| AGGTCGGA | -0.126 |
| TGCTTAAA | 0.0684 |
| GCCCTTCA | -0.144 |
| CATGTATC | -0.00115 |
| CCAACGGG | -0.0966 |
| CGGTATCA | 0.0895 |
| GACGTCCC | -0.0634 |
| AGAACATG | -0.00034 |
| CGGCTGCC | -0.0671 |
| AGGATGTG | -0.212 |
| ACGGGCCG | 0.226 |
| TCCAGTCA | -0.258 |
| GATTTAGC | 0.101 |
| TAAACCAA | 0.0347 |
| ATTTACTC | -0.0904 |
| AGCGTAAT | -0.0565 |
| GATTGCCA | -0.0898 |
| AACCAAAT | -0.00887 |
| CTGCGTTA | -0.046 |

| Sequence | PBM E-score |
| --- | --- |
| GCATGACA | -0.149 |
| CTTCGGCC | -0.198 |
| ATAGACAT | -0.151 |
| GGAGACCC | -0.241 |
| GGCTGTGA | -0.125 |
| GAGCAACC | 0.0353 |
| ATTAGACG | -0.0483 |
| ATTGAATA | 0.0931 |
| CGAACGGC | 0.291 |
| ATTATGAG | -0.102 |
| ATCCACAG | -0.262 |
| AGTAGGGG | -0.2 |
| AGTCTTCA | -0.285 |
| AAAGTTGT | 0.075 |
| AACGAGGC | 0.444 |
| TCGTGACA | -0.00407 |
| CCCCCGGG | -0.0962 |
| GGAGCAGA | -0.203 |
| AGAAGGTC | -0.217 |
| GAGGTGGA | -0.297 |
| GCCGAGGA | 0.0753 |
| ACCGAAGG | 0.0458 |
| AGAAGTAT | 0.0151 |
| CGCGTAGA | 0.165 |
| AGCACGGG | -0.14 |

| Sequence | PBM E-score |
| --- | --- |
| CATACCTA | -0.324 |
| ACGTGCCG | 0.1 |
| CAATAGAG | -0.00365 |
| CCTCGTCG | 0.195 |
| CAGGGGTC | -0.0983 |
| TGGAGCCA | -0.179 |
| AGATAGGC | 0.102 |
| TACTAAGA | 0.062 |
| AAGACTGG | -0.109 |
| CGACAGAG | 0.0348 |
| CGAGTCCG | 0.0814 |
| CTGGAAAA | -0.119 |
| CTGCGGAC | -0.189 |
| CTAGTTAA | -0.133 |
| AACTCGGC | 0.138 |
| GGGTCCAC | -0.33 |
| ACTGCAGA | -0.152 |
| ACCACAGC | -0.112 |
| CCTGATAG | -0.183 |
| ATCGGTCC | -0.00666 |
| AGAGCTCG | 0.216 |
| GTCTCGGA | 0.162 |
| AGGCTTGC | -0.252 |
| CTTCAGGA | -0.0676 |
| AGTCAAAA | -0.0553 |

| Sequence | PBM E-score |
| --- | --- |
| CCAGCATA | -0.111 |
| ACACTTCA | -0.0869 |
| ATGATTCC | -0.0756 |
| GAGTCGAA | 0.055 |
| GGCGCGTA | 0.238 |
| GATATTCC | -0.00881 |
| CCCCCCTA | -0.262 |
| CGCATATA | 0.205 |
| TATGCACA | -0.00231 |
| ACTTTACC | 0.0162 |
| TGGGATAA | -0.284 |
| TCCTAGGA | -0.319 |
| AATGACAT | -0.147 |
| TAAAGTAA | 0.0156 |
| ACCTCAAG | -0.206 |
| CATTGAAC | 0.189 |
| CTTGACCC | -0.144 |
| AGATCAGG | -0.0626 |
| GTTCTATA | 0.162 |
| CTTCATGC | -0.044 |
| AGCGTCAC | -0.0383 |
| ACCGCCAG | -0.0637 |
